In PubChem BioAssay AID485294 (National Center for Advancing Translational Sciences (NCATS), 2010):
Where “and” joins values, the source holds several entries; their conditions need not be identical. Identical values can stand only once. Hit rate of the full screen: of about 370,000 compounds, about 150 (0.041%) were called active. Inconclusive results, whose numbers are uncertain, are shown with a selection of clear calls. The call rests on the fitted dose curve; in most records, active means well fitted inhibition curve with a large enough effect; inconclusive means small, poorly fitted or top-dose-only effect; inactive means flat fitted curve, though single readings scatter. A potency beside an inconclusive call is a rough fit, not a confirmed value.

molecular target: Beta-lactamase (Escherichia coli (strain K12)) (UniProt P00811); test: qHTS Inhibitors of AmpC Beta-Lactamase (assay with detergent); details: AmpC hydrolysis of nitrocefin, absorbance 480 nm, 0.01% Triton; activity change, negative = inhibition: at 114 µM (top of the series); further: nearly all actives have a fitted effect of over 25% in size;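 on activity change, negative = inhibition: 0% = no-compound wells and -100% = no-enzyme wells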
How it was run: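 20 mM phosphate pH 7.0 + 0.01% (detergent screen) or 0.0001% Triton X-100; 5.3 nM AmpC reagent; cpd preinc 15 min RT; nitrocefin (800 uM stock) to start; A480 q20 s × 4 min; Activity was normalised to no-enzyme and no-compound control wells.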
Potency means the concentration at half of the fitted maximal effect; tags describe the fitted curve by direction and shape.

UniProt P00811, sequence (P00811 whole entry, looked up): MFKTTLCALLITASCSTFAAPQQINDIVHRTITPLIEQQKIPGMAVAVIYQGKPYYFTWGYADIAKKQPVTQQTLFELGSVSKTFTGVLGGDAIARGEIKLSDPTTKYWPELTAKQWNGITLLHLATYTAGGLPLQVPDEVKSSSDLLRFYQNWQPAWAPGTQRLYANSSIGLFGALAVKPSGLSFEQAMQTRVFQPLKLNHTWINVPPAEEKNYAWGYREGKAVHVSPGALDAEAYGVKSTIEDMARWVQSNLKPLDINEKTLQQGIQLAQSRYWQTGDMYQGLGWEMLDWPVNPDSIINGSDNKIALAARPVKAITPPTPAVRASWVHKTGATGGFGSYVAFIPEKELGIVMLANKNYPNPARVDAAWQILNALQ

SMILES	Potency	activity change, negative = inhibition
Cc1cccc(Nc2nnc(SCC(=O)NC3CCCc4ccccc43)s2)c1 (stereo unspecified)	inconclusive: 31.6 µM [inhibitor, partial curve]	–
CCCCCCOC(=O)C(C#N)c1nc2ccccc2nc1N1CCN(C)CC1 (stereo unspecified)	inactive and inconclusive: 631 nM [inhibitor, full curve, poor fit]	–
COc1cccc(N2CCN(C(=O)c3ccc(-c4ccccc4)cc3)CC2)c1	–	inactive: -3.48%
CCOC(=O)N1CCc2c(sc3c2c(=O)n(CCc2ccccc2)c(=O)n3Cc2ccc(F)cc2)C1	–	inactive: -0.0347%
Cc1ccc(C(c2nnnn2CS(=O)(=O)c2ccc(C)cc2)N2CCN(c3ncccn3)CC2)cc1 (stereo unspecified)	inconclusive: 100 µM [inhibitor, single point]	–
CC(C)[C@@H](COc1ccccc1)N1CCN(Cc2ccccc2)CCC1=O	inconclusive: 35.5 µM [inhibitor, partial curve]	–
COc1cc(C(c2c(C(=O)O)[nH]c3ccccc23)c2c(C(=O)O)[nH]c3ccccc23)ccc1OCc1ccccc1	–	inactive: -13.7%
O=C(NNC(=O)c1cc(-c2ccccc2)nc2ccccc12)c1csc(N2CCOCC2)n1	inconclusive: 0.562 µM [inhibitor, full curve, poor fit]	–
CCOC(=O)CSc1nc2ccc(C)cc2cc1C#N	–	inactive: 0.962%
O=C(NCCCc1ccccc1)c1cc(COc2ccc(F)cc2Cl)on1	inconclusive: 7.08 µM [inhibitor, full curve]	–
O=C(CSc1nnc(-c2cccnc2)s1)Nc1cccc(C(=O)O)c1	inconclusive: 5.01 µM [inhibitor, single point]	–
N=c1c[n+](-c2ccc(Cl)cc2)[n-]o1	inconclusive: 100 µM [inhibitor, partial curve, poor fit]	–
CNc1ccc([N+](=O)[O-])cc1-c1nc2ccccc2[nH]c1=O	inconclusive: 89.1 µM [inhibitor, single point]	–
CN1C(=O)C(=O)/C(=C(/O)c2ccc(Br)cc2)C1c1ccc(Cl)cc1 (stereo unspecified)	inconclusive: 3.16 µM [inhibitor, full curve]	–
CC/C(O)=C1\C(=O)CC(c2ccccc2)CC1=NC(C)C (stereo unspecified)	inconclusive: 5.01 µM [inhibitor, full curve, poor fit]	–
Cc1cccc(N2CCN(CC(=O)Nc3ccc(S(=O)(=O)N4CCOCC4)cc3)CC2)c1C	–	inactive: 1.71%
O=C(CSCc1c(F)cccc1Cl)NCc1cccnc1	inconclusive: 39.8 µM [inhibitor, single point]	–
Cc1cc(C)c(S(=O)(=O)N2CCN(CCN3C(=O)c4cccc5cccc(c45)C3=O)CC2)cc1[N+](=O)[O-]	inconclusive: 0.562 µM [inhibitor, full curve, poor fit]	–
CCOC(=O)c1ccc(NC(=O)c2cc(OC)c(OC)c(OC)c2Br)cc1	inconclusive: 10 µM [inhibitor, full curve, poor fit]	–
O=C1N=C(N2CCCCC2)SC1=C1CCCC1	–	inactive: -16%
Cc1nc2ccc(S(=O)(=O)N(C)CC(=O)Nc3ccc(Br)c(C)c3)cc2s1	–	inactive: -0.0682%
Cc1cccc(C(=O)N[C@H](C(=O)Nc2nc3ccccc3[nH]2)C(C)C)c1	–	inactive: 0.059%

SMILES	Potency	activity change, negative = inhibition
COc1ccc(CCNC(=O)C2CCC(=O)N(C3CC3)C2)c(OC)c1 (stereo unspecified)	inconclusive: 1.58 µM [inhibitor, full curve, poor fit]	–
CCC(=O)c1ccccc1OCC(=O)Nc1c(C)cccc1C	inconclusive: 22.4 µM [inhibitor, full curve]	–
O=C(NNS(=O)(=O)c1ccc(F)c(Cl)c1)c1cccc(S(=O)(=O)N2CCOCC2)c1	inconclusive: 25.1 µM [inhibitor, full curve, poor fit]	–
O=C(CSCC(=O)N1CCCc2ccccc21)Nc1nc(-c2ccccc2)cs1	inconclusive: 2.82 µM [inhibitor, full curve, poor fit]	–
Cc1[nH]c2ccccc2c1C1=CCNCC1	–	inactive: -14.2%
O=C(N[C@@H](c1ccccc1)[C@@H]1C[C@H]1C(=O)O)OCc1ccccc1	inconclusive: 44.7 µM [inhibitor, single point]	–
Oc1ccc(/C=N/N(Cc2ccccc2)c2ccccc2)c(O)c1O	–	inactive: -2.83%
Cc1ccc(-n2cc(CN(C)Cc3ncc[nH]3)c(-c3cccc(C)c3)n2)cc1	–	inactive: -0.518%
COc1ccc(OC)c(C(=O)NC2CC(C)(C)Cc3c2cnn3-c2ccccc2)c1 (stereo unspecified)	inconclusive: 0.355 µM [inhibitor, full curve, poor fit]	–
Cc1ccccc1NC(=O)N1CCCC1C(=O)NCc1cccs1 (stereo unspecified)	inconclusive: 3.98 µM [inhibitor, full curve, poor fit]	–
O=C(CN1C2CCCC1CC(NC(=O)c1ccccc1)C2)Nc1nccs1 (stereo unspecified)	–	inactive: 1.62%
CCCc1cc(-c2n[nH]c(=S)n2CC(C)C)cs1	inconclusive: 0.891 µM [inhibitor, full curve, poor fit]	–
O=C(COC(=O)c1ccccc1F)c1ccc(-n2nncc2-c2ccco2)cc1	inconclusive: 3.16 µM [inhibitor, full curve]	–
CC(C)(C)c1ccc(Oc2ccc(NC(=O)c3ccco3)cn2)cc1	–	inactive: 7.07%
COc1ccc(S(=O)(=O)N(CCc2ccccc2)CC(=O)Nc2cccc(OC)c2)cc1	–	inactive: 14.1%
O=C(CCCn1c(=O)oc2ccccc21)Nc1cccnc1	inconclusive: 8.91 µM [inhibitor, full curve, poor fit]	–
COc1cccc(-n2c(SCC(=O)O)nnc2-c2cccnc2)c1	inconclusive: 0.631 µM [inhibitor, full curve, poor fit]	–
CC(=O)c1c(N2CCN(c3cccc(Cl)c3)CC2)nc(=S)n(-c2ccccc2)c1C	inconclusive: 100 µM [inhibitor, partial curve, poor fit]	–
N#Cc1c(OCC(=O)c2ccccc2)nc2c(c1-c1ccco1)CCc1ccccc1-2	inconclusive: 44.7 µM [inhibitor, partial curve, poor fit]	–
Cc1cc(OC(=O)c2ccco2)c(Sc2ccccc2[N+](=O)[O-])c(=O)o1	inconclusive: 112 µM [inhibitor, partial curve, poor fit]	–
Cn1c(=O)[nH]c(=O)c2c1nc(N1CCCC1)n2CCSc1nc2ccccc2[nH]1	–	inactive: 0.473%
COc1cc(/C=N/Nc2nc(Nc3ccc(C)cc3)nc(-n3nc(C)cc3C)n2)cc(OC)c1OC	–	inactive: -10.3%

SMILES	Potency	activity change, negative = inhibition
CCOc1ccc(C2=NC(c3cccs3)=Nc3ccc(C(C)C)cc3N2)cc1	–	inactive: 0.82%
Cc1ccc(-c2onc3ccc(Br)cc23)cc1	inconclusive: 1.58 µM [inhibitor, full curve, poor fit]	–
Cc1cccc(CC2C(=O)Nc3ccccc32)c1 (stereo unspecified)	–	inactive: 20.7%
O=S(=O)(c1ccccc1)N1CCCc2ccccc21	inconclusive: 0.708 µM [inhibitor, full curve, poor fit]	–
CCOc1ccc(S(=O)(=O)Nc2cccc(OC)c2)cc1	–	inactive: -2.88%
Cc1ccoc1C(=O)NCc1occc1C(=O)O	inconclusive: 0.562 µM [inhibitor, full curve, poor fit]	–
Cc1c(/C=N\NC(=O)c2csc3ccccc23)cnn1C	inconclusive: 5.01 µM [inhibitor, full curve, poor fit]	–
O=C(COc1ccccc1Cl)NCCCNC(=O)c1ccco1	inconclusive: 8.91 µM [inhibitor, full curve]	–
Cc1ccc(N2CC(C(=O)N3CCC(C(=O)NCCCOC(C)C)CC3)CC2=O)cc1 (stereo unspecified)	inconclusive: 0.708 µM [inhibitor, full curve, poor fit]	–
COc1ccc(/C=N/NC(=O)c2ccccc2O)cc1Cn1cc(Cl)cn1	inconclusive: 10 µM [inhibitor, full curve]	–
COc1ccc(-c2nn(C)c(=O)c3ccccc23)cc1NC(=O)COc1ccc(C)cc1	inconclusive: 7.94 µM [inhibitor, full curve, poor fit]	–
Cc1sc(NC(=O)Cn2nc(C(F)(F)F)cc2C)c(C(=O)OC(C)C)c1C	inconclusive: 2.51 µM [inhibitor, single point]	–
Cc1cc(C)cc(NC(=O)c2ccc(NC3=NC4CS(=O)(=O)CC4S3)cc2)c1 (stereo unspecified)	inconclusive: 50.1 µM [inhibitor, partial curve]	–
O=C(NCCC1=CCCCC1)C(=O)NCc1ccccc1Cl	inconclusive: 31.6 µM [inhibitor, partial curve]	–
COc1ccccc1NC(=O)COC(=O)CNC(=O)c1ccc(OC)c(OC)c1	inconclusive: 1.26 µM [inhibitor, full curve, poor fit]	–
CSc1cccc(NC(=O)COc2ccccc2C)c1	–	inactive: -11.5%
O=C(NCc1ccccc1OC(F)(F)F)C1CCC(=O)N(Cc2ccccn2)C1 (stereo unspecified)	inconclusive: 4.47 µM [inhibitor, single point]	–
COc1ccc(Nc2ncc(C(=O)N3CCC(C(N)=O)CC3)c3ccccc23)cc1	inconclusive: 7.94 µM [inhibitor, full curve]	–
COc1cccc(C(=O)OCC(=O)NCCCc2ccccc2)c1	inconclusive: 63.1 µM [inhibitor, partial curve, poor fit]	–
CCOc1cc(C)c(S(=O)(=O)Nc2ccc(F)cc2)cc1C	inconclusive: 2.51 µM [inhibitor, full curve, poor fit]	–
CN(C)S(=O)(=O)c1cccc(NC(=O)c2n[nH]c(=O)c3ccccc23)c1	inconclusive: 100 µM [inhibitor, single point]	–
O=C(CCCCCn1c(SCc2ccncc2)nc2ccccc2c1=O)NCc1ccco1	inconclusive: 70.8 µM [inhibitor, partial curve, poor fit]	–
